# Measured values published in publication PMC4336329 (PLoS ONE, 2015).
# Screen size: about 310,000 compounds; about 2,200 (0.71%) showed an effect of 50% or more. The effect is printed as a negative number. Some of the results follow.
# Molecular target: human ether-à-go-go-related gene (hERG) potassium channel (human, UniProt Q12809)
# Test: primary screen, population patch clamp on CHO cells stably expressing hERG
# human ether-à-go-go-related gene (hERG) potassium channel, sequence (Q12809 whole entry, looked up): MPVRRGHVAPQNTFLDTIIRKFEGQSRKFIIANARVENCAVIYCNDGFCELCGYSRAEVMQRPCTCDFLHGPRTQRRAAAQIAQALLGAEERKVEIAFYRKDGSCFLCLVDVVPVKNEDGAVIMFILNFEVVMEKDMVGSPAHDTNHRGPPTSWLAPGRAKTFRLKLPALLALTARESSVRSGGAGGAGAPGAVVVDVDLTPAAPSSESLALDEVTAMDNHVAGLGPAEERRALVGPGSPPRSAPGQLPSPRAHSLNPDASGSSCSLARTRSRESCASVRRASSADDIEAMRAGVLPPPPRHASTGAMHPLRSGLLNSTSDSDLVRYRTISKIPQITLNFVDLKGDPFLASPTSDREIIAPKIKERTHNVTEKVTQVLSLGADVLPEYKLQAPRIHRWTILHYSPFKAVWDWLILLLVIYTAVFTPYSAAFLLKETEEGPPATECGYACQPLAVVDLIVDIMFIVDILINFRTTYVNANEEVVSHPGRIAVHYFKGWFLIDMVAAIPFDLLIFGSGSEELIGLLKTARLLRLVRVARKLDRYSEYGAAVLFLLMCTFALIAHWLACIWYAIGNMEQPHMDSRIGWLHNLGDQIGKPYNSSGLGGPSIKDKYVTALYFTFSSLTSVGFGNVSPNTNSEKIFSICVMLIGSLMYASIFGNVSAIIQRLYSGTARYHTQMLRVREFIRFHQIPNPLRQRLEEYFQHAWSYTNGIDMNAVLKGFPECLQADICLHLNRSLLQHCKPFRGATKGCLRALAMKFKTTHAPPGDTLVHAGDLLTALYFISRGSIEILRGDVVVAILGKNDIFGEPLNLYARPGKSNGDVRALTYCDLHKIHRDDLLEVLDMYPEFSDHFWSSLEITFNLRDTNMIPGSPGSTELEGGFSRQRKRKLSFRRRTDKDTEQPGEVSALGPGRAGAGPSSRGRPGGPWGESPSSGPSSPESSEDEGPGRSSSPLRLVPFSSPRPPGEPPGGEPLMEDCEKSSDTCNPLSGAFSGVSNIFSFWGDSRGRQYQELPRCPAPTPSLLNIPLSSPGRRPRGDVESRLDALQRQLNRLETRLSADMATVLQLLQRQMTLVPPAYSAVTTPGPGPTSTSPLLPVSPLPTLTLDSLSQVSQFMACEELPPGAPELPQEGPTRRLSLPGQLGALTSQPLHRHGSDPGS
row,SMILES,"hERG current change (%, negative = inhibition) at 1uM"
1,CCC(Sc1nc(C)cc(C)n1)C(=O)NC1=NN=C(c2ccc(C)cc2)CS1 (centres unmarked),5.95%
2,Cc1ccc(S(=O)(=O)NCCCCCC(=O)N(C)C)cc1,7.86%
3,COc1ccc(S(=O)(=O)Nc2ccc3c(c2)n(C)c(=O)n3C)cc1F,21.6%
4,COc1cccc(NC(=O)CSc2ccc3nnc(-c4ccncc4)n3n2)c1,3.46%
5,COc1cc(NC(=O)CSC(=S)N2CCCC2)c(OC)cc1Cl,27.5%
6,Cc1nc(NCc2ccco2)c2c3c(sc2n1)CCC3,2.14%
7,CCOC(=O)C1=C(COC(=O)COc2ccccc2C#N)NC(=O)NC1C (centres unmarked),7.51%
8,O=C(CC(NC(=O)c1ccccc1Cl)c1ccccc1)Nc1ccc2c(c1)OCO2 (centres unmarked),11.4%
9,O=S(=O)(NC1CCN(S(=O)(=O)c2ccc3c(c2)OCCO3)C1)c1c(F)cccc1F (centres unmarked),12%
10,O=C(NCCCn1ccnc1)/C(=C\c1ccco1)NC(=O)c1ccco1,-10.8%
11,COc1ccc2nc(CCN(C)C(=O)C3CCC(=O)N(Cc4cccc(F)c4)C3)[nH]c2c1 (centres unmarked),8.35%
12,Cc1cc(C)cc(OCC(=O)N2Cc3ccccc3CC2C(=O)O)c1 (centres unmarked),0.521%
13,CC1CCc2nn(CC(=O)NCc3ccc4c(c3)OCO4)cc2C1 (centres unmarked),-5.05%
14,Cc1ccc(C)c(CN2CCN(c3ncccn3)CC2)c1,7.94%
15,CCOC(=O)c1ccc(NC(=O)CCc2nc(-c3ccc(C)cc3)no2)cc1,7.27%
16,O=C(O)c1cc(N2C(=O)C3C4C=CC(C4)C3C2=O)ccc1N1CCOCC1 (centres unmarked),3.47%
17,CN1C2CCC1CC(NC(=O)CSCc1ccc(Cl)cc1Cl)C2 (centres unmarked),-8.82%
18,CCN(CC)C(=O)c1nc[nH]c1C(=O)N1CCN(c2ccccc2)CC1,13.5%
19,COc1ccccc1N1CCN(CC(=O)Nc2ccnn2C2CCCC2)CC1,5.53%

row,SMILES,"hERG current change (%, negative = inhibition) at 1uM"
1,COc1ccc(C(c2c(NC(=O)c3ccco3)sc(C)c2C)N2CCOCC2)cc1OC (centres unmarked),0.0157%
2,O=C(Nc1ccc(Oc2cccnc2)nc1)c1ccc(C(F)(F)F)cc1,4.92%
3,COC(=O)C1C(=O)c2c([nH]c(C(=O)OC3CCCC3C)c2C)CC1C (centres unmarked),8.93%
4,O=C(CC1CCCCC1)Nc1ccccc1-c1ccccc1,10.7%
5,COc1cc(C2NC(=O)c3ccccc3O2)cc(OC)c1OC (centres unmarked),-0.118%
6,COc1ccc(NC(=O)CN2C(=O)CC(C)(C)S(=O)(=O)c3ccccc32)cc1,5.01%
7,CNCCCC1Sc2ccccc2Oc2ccccc21.O=C(O)C(=O)O (centres unmarked),2.83%
8,CCOc1cc(/C=N/n2cnnc2)ccc1OS(=O)(=O)c1ccccc1,-17.2%
9,CC(=O)Nc1ccc(NC(=O)c2ccc(COc3ccccc3Br)o2)cc1,14.2%
10,Cc1cccc(C(C(N)=O)c2ncc(C(F)(F)F)cc2Cl)c1 (centres unmarked),-1.26%
11,CCOC(=O)C(=CNc1ccc(Oc2cncc(Cl)c2)nc1)C(=O)OCC,5.13%
12,NC(=O)C1(N2CCCCC2)CCN(C(=O)c2ccc(-n3cnnn3)cc2)CC1,-19.5%
13,CCCCOc1ccc(C(C)NC(=O)C2CCCN(S(=O)(=O)CC)C2)cc1 (centres unmarked),9.99%
14,N=C1c2ccccc2CN1NC(=O)CC12CC3CC(CC(C3)C1)C2,3.97%
15,CCCc1nnc(SCC(=O)N2CCCCC2)n1CCCOC,10.1%
16,Cc1ccc(S(=O)(=O)N(Cc2ccccc2)c2ccccc2C(=O)NCc2ccco2)cc1,14.9%
17,Cc1ccc(C(=O)N2CCN(c3ccc(NC(=O)COc4ccccc4C)cc3)CC2)cc1,-28.4%
18,COC(=O)c1ccc(Oc2ccc(C(C)(C)C)cc2)c([N+](=O)[O-])c1,11.4%
19,CC(Cc1ccccc1)NC(=O)c1ccc(N)cc1 (centres unmarked),4.15%

row,SMILES,"hERG current change (%, negative = inhibition) at 1uM"
1,CC(=O)Nc1ccc(-c2cn3cccnc3n2)cc1,6.42%
2,COc1cccc(-c2sc3ccc(OC)cc3c2-c2ccc(OC)cc2F)c1,7.79%
3,CCN(CC)CCN1C(=O)/C(=C\c2ccc(Cl)c([N+](=O)[O-])c2)SC1=Nc1ccc(OC)cc1,12.2%
4,CC1(C(=O)OCC(=O)Nc2ccccc2)CC1(Cl)Cl (centres unmarked),15.3%
5,O=C(c1cc(-c2ccc(Cl)cc2)on1)N1CCc2ccccc2C1,11.6%
6,O=C(CCCOc1ccccc1)Nc1ccc(S(=O)(=O)N2CCOCC2)cc1,10%
7,COc1cccc(-c2nnc(SCc3cccnc3)o2)c1,12.9%
8,O=S(=O)(N1CCOCC1)N1CCN(c2ccc(F)cc2)CC1,4.05%
9,COc1ccc(NS(=O)(=O)c2ccc(C)cc2)c([N+](=O)[O-])c1,1.31%
10,O=C(N/N=C/c1cccc(Br)c1)c1ccc(N2CCCC2=O)cc1,-12.2%
11,COc1ccccc1NC(=O)c1nn(-c2cccc(C(F)(F)F)c2)ccc1=O,12%
12,COc1ccc(CCNC(=O)CN(C)S(=O)(=O)c2ccc(Br)s2)cc1OC,-11.6%
13,CC(C)(C)C(=O)Nc1ccc2oc(-c3cc(F)c(F)cc3Cl)nc2c1,15.8%
14,COc1ccc(CNC(=O)C(C)NC(=O)c2cc3ccccc3o2)cc1 (centres unmarked),-0.419%
15,CN(C)c1cccc(C(=O)OCC(=O)N(Cc2ccccc2)C2CCS(=O)(=O)C2)c1 (centres unmarked),8.25%
16,CC(C)c1ccc(CNC(=O)C(=O)NCCCn2ccnc2)cc1,9.36%
17,C/C(=N\NC(=O)c1cccc(C)c1)c1cccc(NC(=O)c2ccco2)c1,4.73%
18,O=C(Oc1ccc(Cl)c2cccnc12)N1CCCCCC1,8.56%
